Source: PubChem BioAssay AID1460 (National Center for Advancing Translational Sciences (NCATS), 2008)
About 5,800 (2.1%) of roughly 270,000 compounds were called active. Inconclusive means that the source gave no clear call. Such entries were picked first, then a sample of the others. The call rests on the fitted dose curve; in most records, active means well fitted inhibition curve with a large enough effect; inconclusive means small, poorly fitted or top-dose-only effect; inactive means flat fitted curve, though single readings scatter. Potencies of inconclusive entries are doubtful fits and often do not repeat.

Biological target: Microtubule-associated protein tau (Homo sapiens) (UniProt P10636)
Experiment: qHTS for Inhibitors of Tau Fibril Formation, Thioflavin T Binding; further: nearly all actives have a fitted effect of over 55% in size
Conditions: recombinant tau K18 P301L (four-repeat tau fragment), heparin-induced fibrillization, ThT fluorescence; series mostly up to 57.4 µM; activity, negative = inhibition: at the top concentration
Outline: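 Recombinant human tau K18 fragment […] carrying P301L, 15 uM unlabeled plus 0.24 uM Alexa 594-labeled, was fibrillized with 20 uM heparin in 100 mM sodium acetate pH 7 for 6 hr at 37 C; 30 uM ThT fluorescence read after 1 hr.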
On the % scale 0 is the no-effect control and ±100 the full control effect; potency means the concentration at half of the fitted maximal effect; tags describe the fitted curve by direction and shape.

UniProt P10636, sequence (P10636 whole entry, looked up): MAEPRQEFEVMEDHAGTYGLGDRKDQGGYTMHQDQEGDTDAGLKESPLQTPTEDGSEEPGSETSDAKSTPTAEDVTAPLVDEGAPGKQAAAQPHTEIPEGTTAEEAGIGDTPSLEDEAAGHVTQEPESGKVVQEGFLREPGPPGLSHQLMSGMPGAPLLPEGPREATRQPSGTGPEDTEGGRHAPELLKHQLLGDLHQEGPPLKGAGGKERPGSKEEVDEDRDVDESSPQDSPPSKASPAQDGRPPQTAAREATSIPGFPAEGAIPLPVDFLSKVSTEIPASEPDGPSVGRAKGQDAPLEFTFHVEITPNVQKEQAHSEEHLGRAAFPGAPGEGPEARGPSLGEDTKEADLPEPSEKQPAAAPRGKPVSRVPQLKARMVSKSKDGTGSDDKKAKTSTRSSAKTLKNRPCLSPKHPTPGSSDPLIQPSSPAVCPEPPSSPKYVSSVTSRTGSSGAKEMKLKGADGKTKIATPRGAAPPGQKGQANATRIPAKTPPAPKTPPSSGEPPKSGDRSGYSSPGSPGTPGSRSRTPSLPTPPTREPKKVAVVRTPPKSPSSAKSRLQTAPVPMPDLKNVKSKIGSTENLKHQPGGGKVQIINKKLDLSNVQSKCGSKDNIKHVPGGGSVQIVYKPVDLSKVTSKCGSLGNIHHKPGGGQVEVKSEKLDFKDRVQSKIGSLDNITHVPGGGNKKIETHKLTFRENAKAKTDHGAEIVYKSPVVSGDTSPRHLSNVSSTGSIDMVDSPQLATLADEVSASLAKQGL

| Structure (SMILES) | activity, negative = inhibition | Potency |
| --- | --- | --- |
| Cc1ccc(OCC(=O)NCC2(N(C)C)CCCCC2)cc1C | inactive: -2.54% | – |
| COc1ccc(C2c3c(n[nH]c3C)CC(C)(O)C2C(C)=O)cc1OC (configuration not stated) | inactive: -9.39% | – |
| Nc1nn(-c2ccccc2Cl)cc1-c1nn[nH]n1 | inactive: -1.95% | – |
| CC#CCOCC/C=C1/c2ccccc2C(OC)C1C (configuration not stated) | inactive: -5.73% [at 11.5 µM] | – |
| Cc1cc(N/C=C/C(=O)c2cccs2)ccc1F | – | inconclusive: 1.12 µM [inhibitor, partial curve, poor fit] |
| CC(C)c1ccc2[nH]c(O)c(N=NC(=O)c3cccc(S(=O)(=O)Nc4ccccc4Cl)c3)c2c1 | inactive: 5.4% | – |
| CCOC(=O)c1cc(-c2cccs2)nc2c1c(C)nn2-c1ccccn1 | – | inconclusive: 28.2 µM [inhibitor, single point] |
| Cc1ccc2nc(/C(C#N)=C\c3cc(C)n(-c4cccc([N+](=O)[O-])c4)c3C)[nH]c2c1 | – | inconclusive: 14.1 µM [inhibitor, partial curve] |
| CCN(CCCc1ccccc1)CCCc1ccccc1 | – | inactive |
| COc1ccc(-c2nc(C)c(CCNC(=O)c3cccs3)s2)cc1OC | – | inconclusive: 4.47 µM [inhibitor, partial curve] |
| Cc1nn(Cc2ccccc2)c(C)c1NC(=O)c1noc2c1CCc1ccccc1-2 | – | inconclusive: 22.4 µM [inhibitor, partial curve, poor fit] |
| COc1cc(O)oc1C=Nc1ccc(Cl)cc1 | – | inconclusive: 17.8 µM [inhibitor, partial curve] |
| COc1ccc(Nc2nc(-c3cccs3)nc3ccccc23)c(OC)c1 | – | inconclusive: 20 µM [inhibitor, partial curve] |
| Fc1ccc(Nc2nc(-c3ccncc3)cs2)cc1 | – | inconclusive: 2.82 µM [inhibitor, full curve] |
| CCC1CCCCN1S(=O)(=O)c1ccc(C(=O)Nc2sc3c(c2C(N)=O)CCC3)cc1 (configuration not stated) | – | inconclusive: 15.8 µM [inhibitor, partial curve] |
| CCn1c2ccccc2c2cc(NC(=O)COC(=O)c3cc(OC)c(OC)cc3OC)ccc21 | – | inconclusive: 15.8 µM [inhibitor, partial curve] |
| CCCc1nc2ccccc2n1CC(O)COc1ccc(C(=O)OC)cc1 (configuration not stated) | – | inconclusive: 1.12 µM [inhibitor, full curve] |
| CSc1ccc(/C=N/NC(=O)c2ccccc2Cl)cc1 | – | inconclusive: 22.4 µM [inhibitor, partial curve] |
| CCc1ccc(CNC(=O)c2cc3ccccn3n2)cc1 | – | inconclusive: 15.8 µM [inhibitor, single point] |
| CCOC(=O)C1CCCN(C(=O)Cn2ncc3c(C)n(Cc4ccccc4Cl)c(C)c3c2=O)C1 (configuration not stated) | – | inconclusive: 0.199 µM [inhibitor, full curve, poor fit] |
| Cc1ccccc1NCC(=O)N/N=C/c1c(C)c(C(=O)c2ccc(Cl)cc2)n2ccccc12 | – | inconclusive: 2.24 µM [inhibitor, full curve] |
| CCOC(=O)C(=CNc1cc(OC)ccc1-n1cccc1)C(=O)OCC | inactive: -9.42% | – |
| Cc1ccc(-c2nnn(CC(=O)N(Cc3cccs3)C(C(=O)NC(C)(C)C)c3ccco3)n2)o1 (configuration not stated) | inactive: 10.3% | – |
| COC(=O)c1c(NC(=O)c2nc3ccccc3s2)sc2c1CCN(C(C)=O)C2 | – | active: 15.8 µM |

| Structure (SMILES) | activity, negative = inhibition | Potency |
| --- | --- | --- |
| Cn1nc([N+](=O)[O-])nc1Oc1ccccc1N | – | inconclusive: 14.1 µM [inhibitor, partial curve] |
| CN(C)CCCNC(=O)/C(=C\c1ccc(-c2cccc([N+](=O)[O-])c2)o1)NC(=O)c1ccccc1 | – | inconclusive: 20 µM [inhibitor, single point] |
| O=C(c1ccc(S(=O)(=O)N2CCCCC2)cc1)N1CCc2ccccc2C1 | inactive: -7.39% | – |
| Cc1ccccc1Nc1sc(C(=O)Nc2cccc(Cl)c2)c(N)c1C(N)=O | – | inconclusive: 15.8 µM [inhibitor, partial curve] |
| NS(=O)(=O)c1ccc(N=NN2CCCCC2)cc1 | inactive: -14% | – |
| CS(=O)(=O)N1N=C(c2cccs2)CC1c1ccc(Cl)o1 (configuration not stated) | inactive: -1.74% | – |
| CCOC(=O)c1c(NC(=S)Nc2cccc(C)c2)sc2c1CC(C)(C)SC2 | inactive: 1.16% | – |
| CC(C)(C)C1CCc2c(sc3nc(-c4cc5ccccc5oc4=O)[nH]c(=O)c23)C1 (configuration not stated) | inactive: -4.93% | – |
| CC1CCCCN1C(=O)Cn1ncc2c3ccccc3n(Cc3ccccc3F)c2c1=O (configuration not stated) | inactive: -0.236% | – |
| COc1ccc2nc(Nc3ccccc3)sc2c1 | – | active: 14.1 µM |
| CCN(CC)CCCNC(=O)CCCn1ncn2c(cc3occc32)c1=O | inactive: 0.824% | – |
| O=S(=O)(Cc1ccccc1)c1cnc2ccccc2n1 | – | inconclusive: 25.1 µM [inhibitor, partial curve] |
| CC(C)(C)c1ccc(OC(=O)c2ccccc2)cc1 | – | inconclusive: 17.8 µM [inhibitor, partial curve, poor fit] |
| Nc1nn(-c2ccccc2)c(N)c1N=Nc1cccc(F)c1 | – | active: 10 µM |
| Cc1ccc(S(=O)(=O)N(CC(=O)N=Nc2c(O)[nH]c3ccccc23)c2ccc(C)c(C)c2)cc1 | – | inconclusive: 35.5 µM [inhibitor, single point] |
| Cc1cc(=O)n2[nH]c(N)c(N=Nc3ccccc3F)c2n1 | – | active: 11.2 µM |
| COC(=O)c1cc(OC)c(OC)cc1NC(=O)CSc1nnnn1Cc1ccccc1 | inactive: -12.6% | – |
| Cc1ccc(C(=O)c2no[n+]([O-])c2C(=O)c2ccc(C)cc2)cc1 | – | active: 14.1 µM |
| O=C(CSc1ncnc2c1oc1ccccc12)OCc1ccccc1 | – | inconclusive: 8.91 µM [inhibitor, partial curve, poor fit] |
| Cc1cc(C)n2c(Nc3ccc(C(C)C)cc3)c(-c3ccsc3)nc2n1 | – | inconclusive: 2 µM [inhibitor, partial curve] |
| CCN(CC)C(=O)CSc1nc2ccsc2c(=O)n1Cc1ccccc1Cl | – | inconclusive: 39.8 µM [inhibitor, single point] |
| c1ccc(N2CCN(c3nc4ccccc4[nH]3)CC2)nc1 | – | inconclusive: 12.6 µM [inhibitor, partial curve] |
| COc1ccc(-c2cn3cccnc3n2)cc1NC(=O)Cc1ccccc1 | inactive: -7.71% | – |
| COc1ccc(N2CCN(C(=O)CCc3ccc(S(=O)(=O)NC(C)(C)C)cc3)CC2)cc1 | – | inconclusive: 35.5 µM [inhibitor, single point] |

| Structure (SMILES) | activity, negative = inhibition | Potency |
| --- | --- | --- |
| Cc1ccccc1-c1nnn(CC(=O)Nc2ccc3c(c2)OCCO3)n1 | inactive: 1.23% | – |
| CC(CN1CCOCC1)OC(=O)/C=C/c1ccccc1 (configuration not stated) | inactive: -1.53% | – |
| O=S1(=O)C=C(Oc2ccc3ccccc3c2)c2ccccc21 | – | inconclusive: 20 µM [inhibitor, partial curve, poor fit] |
| COc1cccc(OCC(=O)NCCS(=O)(=O)N2CCN(c3ccccc3F)CC2)c1 | inactive: -3.28% | – |
| C/C(=N/NC(=O)c1cccs1)c1ccc(N2CCOCC2)cc1 | – | inconclusive: 14.1 µM [inhibitor, partial curve] |
| O=c1c(=O)n(Cc2ccc(Cl)cc2)ccn1Cc1ccc(F)cc1 | – | inconclusive: 12.6 µM [inhibitor, partial curve] |
| CC(C)(C)C(=O)/C(=C/c1ccncc1)n1cncn1 | – | inconclusive: 11.2 µM [inhibitor, partial curve] |
| Cc1cc(C)c2nc(SC(C)C#N)cc(C)c2c1 (configuration not stated) | – | inconclusive: 31.6 µM [inhibitor, single point] |
| Oc1ccc(/C(Cc2ccccn2)=N\Nc2ccccc2)c(O)c1 | – | inconclusive: 11.2 µM [inhibitor, partial curve] |
| CCCCN(CCCNC(=O)CN1N=C(c2ccc(C)cc2)CCC1=O)c1ccccc1 | – | inconclusive: 25.1 µM [inhibitor, single point] |
| Cc1csc(NC(=S)Nc2cccc(Cl)c2)n1 | – | inconclusive: 12.6 µM [inhibitor, partial curve] |
| Cc1ccc(NC2=C/C(=N/S(=O)(=O)c3cccs3)c3ccccc3C2=O)cc1 | – | inconclusive: 2.82 µM [inhibitor, full curve] |
| CCOC(=O)c1c(C)cc(O)c(C)c1O | inactive: -3.24% | – |
| Cc1ccc2c(c1)-c1c(cnn1CC(=O)N1CCN(c3ccccc3F)CC1)CO2 | inactive: -1.42% | – |
| CC(C)(C)NC(=O)CSc1nc2scc(-c3ccccc3)c2c(=O)[nH]1 | – | inconclusive: 28.2 µM [inhibitor, single point] |
| CNC(=O)c1cc2c(=O)n3cc(C)ccc3nc2n(Cc2ccco2)c1=N | – | inconclusive: 8.91 µM [inhibitor, full curve] |
| Cc1cc(C(=O)CSc2nc(N)cc(=O)[nH]2)c(C)n1CCc1ccc(F)cc1 | – | inconclusive: 17.8 µM [inhibitor, partial curve] |
| CC(C)CCNC(=O)C1CCN(C(=O)N2CCOc3ccc(Cl)cc32)CC1 | – | inconclusive: 31.6 µM [inhibitor, single point] |
| COc1cc(NC(=O)c2ccccc2)c(OC)cc1NC(=O)CN1CCN(c2ccccn2)CC1 | – | inconclusive: 17.8 µM [inhibitor, partial curve] |
| COC(=O)c1ccc(NC(=O)c2sc3nc(-c4ccccc4)cn3c2C)cc1 | – | inconclusive: 1.41 µM [inhibitor, full curve] |
| O=C(Cc1c(O)c2ccccc2[nH]c1=O)NCc1cccc(F)c1 | inactive: -1.81% | – |
| CCN1CCN(C(c2ccc(F)cc2)c2c(O)cc(C)n(CCOC)c2=O)CC1 (configuration not stated) | – | inconclusive: 28.2 µM [inhibitor, single point] |
| CCOC(=O)c1sc(N/N=C/c2ccccc2)nc1C | – | inconclusive: 15.8 µM [inhibitor, partial curve] |
| O=C1CCC/C(=N\NC(=O)c2ccc(COc3ccccc3-c3ccccc3)cc2)C1 | – | inconclusive: 31.6 µM [inhibitor, single point] |
